From patent US12559504B2, “Benzotriazole derivative” (UBE CORPORATION, priority 2019, dated 2026)
For part of these data: At least one read-out could not be matched to a standard name with certainty. Some entries share one result that the patent states for a list of compounds.

Target: T1, GST fusion human Keap1 (amino acid residue: 325-624) protein (Homo sapiens, UniProt Q14145)
T1 construct: GST fusion human Keap1 (amino acid residue: 325-624) protein; purchased Protein tech Ag0779
Experiment: Keap1-Nrf2 binding inhibition test (fluorescence polarization)
Details: compound concentration of 100 nM
Procedure: The inhibitory activity of each test compound on the binding between Nrf2 and Keap1 was measured by the fluorescence polarization method. A solution consisting of 20 mM tris-hydrochloride pH7.5 (NIPPON GENE CO., LTD., REF: 318-90225), 150 mM NaCl [FUJIFILM Wako Pure Chemical. Corporation, REF: 191-01665], 0.05% Tween 20 (BioRAD, REF: 161-0781), and 5 mM DTT (FUJIFILM Wako Pure Chemical Corporation, REF: 049-08972) was used as a buffer solution. To a test compound solution (70 μL) adjusted to each concentration with 10% DMSO (FUJIFILM Wako Pure Chemical Corporation, REF: 043-07216) was added a buffer solution (350 μL) comprising 6 nM FITC-labeled Nrf2 peptide (FITC-Ahx-LDEETGEFL-NH2, Invitrogen) and 0.2 mg/mL of BSA (FUJIFILM Wako Pure Chemical Corporation, REF: 017-22231). […] The plate was incubated at room temperature for 30 minutes, and each fluorescence polarization at excitation wavelength of 482 nm and fluorescence wavelength of 530 nm was measured by using a plate reader Clariostar (BMG Labtech). […] Inhibition rate (%)=100−((Fluorescence polarization when test compound was added−Fluorescence polarization of negative control)/(Fluorescence polarization of positive control−Fluorescence polarization of negative control))×100

T1 sequence (Q14145 325-624): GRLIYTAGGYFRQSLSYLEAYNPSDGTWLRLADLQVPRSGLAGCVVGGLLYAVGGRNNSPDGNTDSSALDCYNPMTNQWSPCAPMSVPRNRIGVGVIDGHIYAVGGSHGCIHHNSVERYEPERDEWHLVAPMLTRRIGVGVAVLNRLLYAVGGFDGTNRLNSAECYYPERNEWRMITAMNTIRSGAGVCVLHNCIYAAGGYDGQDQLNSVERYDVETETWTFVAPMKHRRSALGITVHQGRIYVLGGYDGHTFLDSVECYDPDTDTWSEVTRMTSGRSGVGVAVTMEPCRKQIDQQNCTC

Row | Compound | inhibition rate [%]
1 | CCCC1CN(Cc2cc(C(c3ccc4c(nnn4C)c3C)C(C)(C)C(=O)O)ccc2C)Cc2cc3ncccc3cc2O1 (stereo not drawn) [Example 78-(b), 3-(1,4-dimethyl-1H-benzo[d][1,2,3]triazol-5-yl)-2,2-dimethyl-3-(4-methyl-3-((2-propyl-2,3-dihydro-[1,4]oxazepino[7,6-g]quinolin-4 (5H)-yl)methyl)phenyl)propanoic Acid] | ≥ 50

System: NQO1
Experiment: NQO1 enzyme induction test (in vitro) in Hepa1c1c7 cells
Format: cell-based, mouse
Details: concentration to elevate the NQO1 activity by 1.5 times, about 48 hours
Procedure: Each NQO1 assay was carried out by modifying a known method (Anal Biochem 1998; 169: 328-, Methods Enzymol 2004; 382: 243-). Hepa1c1c7 cells (mouse hepatocyte line manufacture by DS Pharma Biomedical Co., Ltd., REF. No. 95090613) were cultured (5% CO2, 37° C.). The cells were cultured in MEMα (manufactured by FUJIFILM Wako Pure Chemical Corporation, REF. 135-15175) medium comprising 10% FBS (manufactured by GIBCO, REF. 10082) and […]/streptomycin/amphotericin B (manufactured by GIBCO, REF. 15240), and dispensed into a 96 well plate (manufactured by Costar, REF. 3610) at 2.0×10^3 cells/well. On the next day, test compound (final concentration of […]: 0.1%) dissolved into DMSO (manufactured by FUJIFILM Wako Pure Chemical Corporation, REF. 043-07216) was added to each well, and the plate was further cultured for about 48 hours.
A cell lysate manufactured by Cell signaling Technology, Inc. (REF. 9803) with the addition of a Protease Inhibitor manufactured by Roche Diagnostics K.K. (REF. 11-873580001) was used. A reaction solution (which is a solution comprising trishydrochloric acid (25 mM), albumin […], Tween-20 (0.01%), glucose-6-phosphate dehydrogenase (2 U/mL), flavin-adenine dinucleotide (5 μM), glucose-6-phosphate (1 μM), nicotinamide adenine dinucleotide phosphate (30 μM), 3-(4,5-dimethyl-2-thiazolyl)-2,5-diphenyltetrazolium bromide (MTT) (0.03%), and menadione (50 μM)), and a stop solution (which is a solution comprising dicumarol (0.3 mM) and potassium dihydrogen phosphate (5 mM), pH 7.4) were prepared. After the medium was removed, cell lysate (50 μL) was added thereto, and the resulting mixture was shaken at room temperature for 20 minutes. The reaction solution (200 μL) was added thereto, and the resulting mixture was left to stand at room temperature for 5 minutes. The stop solution (50 μL) was added thereto, and absorbance at 540 nm (reference 750 nm) was measured.
Cell number was measured by Cell Titer Glo assay (manufactured by Promega Corporation, REF. G9242) by using another plate prepared according to the same conditions as those described above, and correction of absorbance was carried out. The test result was analyzed by Excel, and the EC150 value which is the concentration to elevate the NQO1 activity by 1.5 times was calculated.

Row | Compound | EC150
2 | CC[C@H]1CN(Cc2cc(C(c3ccc4c(nnn4C)c3C)C(C)(C)C(=O)O)ccc2C)Cc2cc3ncccc3cc2O1 (single isomer, unassigned; diastereomer 2) [Example 58] | E (EC150≥500 nM)
3 | CC[C@@H]1CN(Cc2cc(C(c3ccc4c(nnn4C)c3C)C(C)(C)C(=O)O)ccc2C)Cc2cc3c(cc2O1)CCCC3 (single isomer, unassigned) [Example 33] | C (5 nM≤EC150<50 nM)
4 | CC[C@@H]1CN(Cc2cc(C(c3ccc4c(nnn4C)c3C)C(C)(C)C(=O)O)ccc2C)Cc2cnc3ccccc3c2O1 (single isomer, unassigned) [Example 47] | B (0.5 nM≤EC150<5 nM)
5 | CC[C@@H]1CN(Cc2cc(C(c3ccc4c(nnn4C)c3C)C(C)(C)C(=O)O)ccc2C)Cc2cc3ncccc3cc2O1 (single isomer, unassigned) [Example 42] | C (5 nM≤EC150<50 nM)
6 | CC[C@@H]1CN(Cc2cc(C(c3ccc4c(nnn4C)c3C)C(C)(C)C(=O)O)ccc2C)Cc2cc3cccnc3cc2O1 (single isomer, unassigned) [Example 39] | B (0.5 nM≤EC150<5 nM)
7 | CC[C@@H]1CN(Cc2cc(C(c3ccc4c(nnn4C)c3C)C(C)(C)C(=O)O)ccc2C)Cc2cc3c(cc2O1)CCC3 (single isomer, unassigned) [Example 32] | E (EC150≥500 nM)
8 | CC[C@@H]1CN(Cc2cc(C(c3ccc4c(nnn4C)c3C)C(C)(C)C(=O)O)ccc2C)Cc2cc3c(cc2O1)OC(F)(F)O3 (single isomer, unassigned) [Example 29] | B (0.5 nM≤EC150<5 nM)
9 | CC[C@@H]1CN(Cc2cc(C(c3ccc4c(nnn4C)c3C)C(C)(C)C(=O)O)ccc2C)Cc2cc3c(cc2O1)OC(F)(F)O3 (single isomer, unassigned) [Example 30] | D (50 nM≤EC150<500 nM)
10 | CC[C@@H]1CN(Cc2cc(C(c3ccc4c(nnn4C)c3C)C(C)(C)C(=O)O)ccc2C)Cc2c(ccc3cn[nH]c23)O1 (single isomer, unassigned) [Example 44] | D (50 nM≤EC150<500 nM)
11 | CC[C@@H]1CN(Cc2cc(C(c3ccc4c(nnn4C)c3C)C(C)(C)C(=O)O)ccc2C)Cc2cnc3ccccc3c2O1 (single isomer, unassigned) [Example 48] | D (50 nM≤EC150<500 nM)
12 | CC[C@@H]1CN(Cc2cc(C(c3ccc4c(nnn4C)c3C)C(C)(C)C(=O)O)ccc2C)Cc2nc3ccccc3cc2O1 (single isomer, unassigned) [Example 37] | A (EC150<0.5 nM)
13 | CCCC1CN(Cc2cc(C(c3ccc4c(nnn4C)c3C)C(C)(C)C(=O)O)ccc2C)Cc2cc3ncccc3cc2O1 (stereo not drawn) [Example 78-(b), 3-(1,4-dimethyl-1H-benzo[d][1,2,3]triazol-5-yl)-2,2-dimethyl-3-(4-methyl-3-((2-propyl-2,3-dihydro-[1,4]oxazepino[7,6-g]quinolin-4 (5H)-yl)methyl)phenyl)propanoic Acid] | C (5 nM≤EC150<50 nM)
14 | CC[C@@H]1CN(Cc2cc(C(c3ccc4c(nnn4C)c3C)C(C)(C)C(=O)O)ccc2C)Cc2nc3ccccc3cc2O1 (single isomer, unassigned) [Example 38] | D (50 nM≤EC150<500 nM)
15 | CC[C@@H]1CN(Cc2cc(C(c3ccc4c(nnn4C)c3C)C(C)(C)C(=O)O)ccc2C)Cc2cc3cccnc3cc2O1 (single isomer, unassigned) [Example 40] | D (50 nM≤EC150<500 nM)
16 | CCCC1CN(Cc2cc(C(c3ccc4c(nnn4C)c3C)C(C)(C)C(=O)O)ccc2C)Cc2cc3ncccc3cc2O1 (stereo not drawn) [Example 77-(b), 3-(1,4-dimethyl-1H-benzo[d][1,2,3]triazol-5-yl)-2,2-dimethyl-3-(4-methyl-3-((2-propyl-2,3-dihydro-[1,4]oxazepino[7,6-g]quinolin-4 (5H)-yl)methyl)phenyl)propanoic Acid] | B (0.5 nM≤EC150<5 nM)
17 | CC[C@@H]1CN(Cc2cc(C(c3ccc4c(nnn4C)c3C)C(C)(C)C(=O)O)ccc2C)Cc2c(ccc3cn[nH]c23)O1 (single isomer, unassigned) [Example 43] | B (0.5 nM≤EC150<5 nM)
18 | CC[C@@H]1CN(Cc2cc(C(c3ccc4c(nnn4C)c3C)C(C)(C)C(=O)O)ccc2C)Cc2ncc3ccccc3c2O1 (single isomer, unassigned) [Example 46] | D (50 nM≤EC150<500 nM)
19 | CC[C@H]1CN(Cc2cc(C(c3ccc4c(nnn4C)c3C)C(C)(C)C(=O)O)ccc2C)Cc2ncc3ccccc3c2O1 (single isomer, unassigned) [Example 90] | E (EC150≥500 nM)
20 | CC[C@H]1CN(Cc2cc(C(c3ccc4c(nnn4C)c3C)C(C)(C)C(=O)O)ccc2C)Cc2ncc3ccccc3c2O1 (single isomer, unassigned) [Example 89-(b)] | C (5 nM≤EC150<50 nM)
21 | CC[C@@H]1CN(Cc2cc(C(c3ccc4c(nnn4C)c3C)C(C)(C)C(=O)O)ccc2C)Cc2ccc3c(c2O1)CCC3 (single isomer, unassigned) [Example 36] | D (50 nM≤EC150<500 nM)
22 | CC[C@@H]1CN(Cc2cc(C(c3ccc4c(nnn4C)c3C)C(C)(C)C(=O)O)ccc2C)Cc2ncc3ccccc3c2O1 (single isomer, unassigned) [Example 45] | B (0.5 nM≤EC150<5 nM)
23 | CC[C@@H]1CN(Cc2cc(C(c3ccc4c(nnn4C)c3C)C(C)(C)C(=O)O)ccc2C)Cc2ccc3c(c2O1)CCC3 (single isomer, unassigned) [Example 35] | C (5 nM≤EC150<50 nM)
24 | CC[C@@H]1CN(Cc2cc(C(c3ccc4c(nnn4C)c3C)C(C)(C)C(=O)O)ccc2C)Cc2cc3c(cc2O1)CCC3 (single isomer, unassigned) [Example 31] | B (0.5 nM≤EC150<5 nM)
25 | CC[C@H]1CN(Cc2cc(C(c3ccc4c(nnn4C)c3C)C(C)(C)C(=O)O)ccc2C)Cc2cc3ncccc3cc2O1 (single isomer, unassigned; diastereomer 1) [Example 57-(c)] | C (5 nM≤EC150<50 nM)
26 | CC[C@@H]1CN(Cc2cc(C(c3ccc4c(nnn4C)c3C)C(C)(C)C(=O)O)ccc2C)Cc2cc3ncccc3cc2O1 (single isomer, unassigned) [Example 41] | A (EC150<0.5 nM)
27 | CC[C@@H]1CN(Cc2cc(C(c3ccc4c(nnn4C)c3C)C(C)(C)C(=O)O)ccc2C)Cc2cc3c(cc2O1)CCCC3 (single isomer, unassigned) [Example 34] | E (EC150≥500 nM)
